Among all 390,000 compounds or so, about 1,400 (0.36%) were called active. Inconclusive results, whose numbers are uncertain, are shown with a selection of clear calls. Calls follow the shape of the dose curve; as a rule, active = well fitted inhibition curve with a large enough effect; inconclusive = small, poorly fitted or top-dose-only effect; inactive = no such curve, though single readings can be large or run the other way. A potency beside an inconclusive call is a rough fit, not a confirmed value.
target: Flap endonuclease 1 (Homo sapiens) (UniProt P39748); experiment: qHTS Assay for the Inhibitors of Human Flap endonuclease 1 (FEN1).; also: nearly all actives have a fitted effect of over 65% in size; details: Recombinant FEN1 flap cleavage, fluorescence, 15 min; series mostly up to 114 µM; activity change, negative = inhibition: at the top concentration
Outline: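 Quantitative HTS format: each compound was titrated, incubated with 10 nM nuclease for 15 min at room temperature, then challenged with flap substrate at 50 nM final. Signal change over 15 min gave concentration–effect curves.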
% is scaled to controls: 0 for no effect and ±100 for the full control effect; potency is read from the fitted curve at half-maximal effect; tags tell the direction and shape of the fitted curve.

Sequence of UniProt P39748 (P39748 whole entry, looked up): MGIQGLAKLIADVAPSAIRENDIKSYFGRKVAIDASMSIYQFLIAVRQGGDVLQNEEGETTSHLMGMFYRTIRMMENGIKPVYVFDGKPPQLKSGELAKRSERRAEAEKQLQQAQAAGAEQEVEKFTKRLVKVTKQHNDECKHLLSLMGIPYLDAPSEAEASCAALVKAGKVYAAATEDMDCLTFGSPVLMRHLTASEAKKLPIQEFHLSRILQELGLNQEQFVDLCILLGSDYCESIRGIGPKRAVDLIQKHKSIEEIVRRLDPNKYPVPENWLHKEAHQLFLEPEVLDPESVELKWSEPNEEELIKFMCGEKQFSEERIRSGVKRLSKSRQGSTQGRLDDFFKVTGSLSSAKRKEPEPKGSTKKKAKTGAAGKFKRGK

Row | SMILES | Potency | activity change, negative = inhibition
1 | NNc1nc(-c2ccccc2)nc(-c2ccccc2)c1Br | inconclusive: 79.4 µM [inhibitor, partial curve, poor fit] | –
2 | COc1ccc(-c2csc(NC(=O)c3ccccc3NS(=O)(=O)c3ccc(C)cc3)n2)cc1 | inconclusive: 50.1 µM [inhibitor, partial curve] | –
3 | O=C1C=CC(=O)N1CCNc1ncc(C(F)(F)F)cc1Cl | inconclusive: 89.1 µM [inhibitor, single point] | –
4 | CCCN(CCC)C(=O)Cn1c(SCc2cccc(C(F)(F)F)c2)nc2cccnc21 | – | inactive: -0.957%
5 | CC(=O)c1ccc(OCCCC(=O)OCC(=O)Nc2ccc3[nH]c(=O)[nH]c3c2)cc1 | inconclusive: 44.7 µM [inhibitor, partial curve, poor fit] | –
6 | Cc1ccc2nc(Nc3nc(CSc4nnc(C)s4)cc(=O)[nH]3)nc(C)c2c1 | inconclusive: 50.1 µM [inhibitor, partial curve] | –
7 | COC(=O)C1(Cc2cc(-c3ccc(OC)cc3OC)no2)CCN(C(=O)OC(C)(C)C)CC1 | inconclusive: 79.4 µM [inhibitor, partial curve, poor fit] | –
8 | COC(=O)c1c(Cl)c2n3ccccc3c(C)c(-c3ccccc3)c-2c1C(=O)OC | – | inactive: -1.14%
9 | COc1ccc2sc(-c3ccc(N(C)C)cc3)c(C#CCO)c2c1 | inconclusive: 17.8 µM [inhibitor, partial curve, poor fit] | –
10 | O=C1CCCC2=C1C(c1ccc(O)c(O)c1)Nc1ccc3ncccc3c12 (stereo unspecified) | inconclusive: 89.1 µM [inhibitor, single point] | –
11 | CC(=O)c1ccc(NC(=O)Nc2ccc(NS(=O)(=O)c3ccc(C)cc3)cc2)cc1 | inconclusive: 39.8 µM [inhibitor, partial curve, poor fit] | –
12 | CC(=O)Nc1ccc(/C=C/c2nc(-c3ccccc3O)n(-c3ccccc3)n2)cc1 | – | inactive: 14%
13 | Cc1c(OCc2ccc(C(=O)O)o2)ccc2c3c(c(=O)oc12)CCC3 | – | inactive: -11.9%
14 | N#CC1=C(N)Oc2n[nH]c(-c3ccc(F)cc3)c2C1c1cccc(OC(=O)N2CCOCC2)c1 (stereo unspecified) | inconclusive: 79.4 µM [inhibitor, partial curve, poor fit] | –
15 | Cc1nn2c(=O)cc(COC(=O)c3ccco3)nc2s1 | – | inactive: 0.661%
16 | C[n+]1ccc(/C=C/c2c[nH]c3ccc(F)cc23)cc1 | inconclusive: 89.1 µM [inhibitor, single point] | –
17 | CC(C)CC(CSc1ccc(Br)cc1)N1CCN(CCc2ccccc2)CCC1=O (stereo unspecified) | inconclusive: 89.1 µM [inhibitor, partial curve, poor fit] | –
18 | O=C1C=CC(=O)c2c(O)c(N3CCN(CCOCCO)CC3)c(Br)c(O)c21 | active: 31.6 µM | –
19 | Cc1ccc(CSC2=Nc3ccccc3C3=NC(CCC(=O)NCc4ccco4)C(=O)N23)cc1 (stereo unspecified) | – | inactive: -7.53%
20 | O=C1NN(c2ccc(Cl)cc2)C(=O)/C1=C\c1ccc(-c2cccc(C(=O)O)c2)o1 | active: 50.1 µM | –
21 | O=C(N/N=C/c1ccco1)c1cccc(N2Cc3ccccc3C2)c1 | inconclusive: 44.7 µM [inhibitor, partial curve] | –

Row | SMILES | Potency | activity change, negative = inhibition
22 | O=C(O)c1ccc(N/N=C/c2cc3cc4c(cc3nc2Cl)OCCO4)cc1 | inconclusive: 44.7 µM [inhibitor, partial curve] | –
23 | COc1ccc(C(=O)c2oc3nc(C)cc(C)c3c2N)cc1 | inconclusive: 20 µM [inhibitor, partial curve, poor fit] | –
24 | O=C(O)c1cccc(Nc2nc(-c3cc4ccccc4oc3=O)cs2)c1 | inconclusive: 56.2 µM [inhibitor, partial curve, poor fit] | –
25 | c1ccc2c(c1)Cc1cc3ccccc3nc1-2 | inconclusive: 39.8 µM [inhibitor, partial curve] | –
26 | O=C(O)c1ccc2nc3c(nc2c1)-c1ccccc1C3=O | inconclusive: 89.1 µM [inhibitor, single point] | –
27 | Cc1ccccc1-c1nc2scc(CCNS(=O)(=O)c3ccccc3)n2n1 | – | inactive: -16.7%
28 | Cc1cc(/C=C(\C#N)c2nc3ccccc3[nH]2)c(C)n1C | – | inactive: -0.667%
29 | COc1ccc(CCNC(=O)c2nnn(CC(=O)Nc3ccccc3)c2N)cc1OC | inconclusive: 56.2 µM [inhibitor, partial curve, poor fit] | –
30 | CC(C)(C)n1ncc2c(=O)n(Cc3cccc(-c4ccccc4)c3)cnc21 | – | inactive: 5.89%
31 | C[C@]12c3[nH]c4ccc(Cl)cc4c3CCN1C(=O)[C@@H](CC(=O)NCC13CC4CC(CC(C4)C1)C3)C[C@@H]2C(=O)N1CCOCC1 | inconclusive: 44.7 µM [inhibitor, partial curve, poor fit] | –
32 | COc1ccc(/C=N/NC(=O)c2ccc(NC(C)=O)cc2)cc1COc1ccc(F)cc1F | inconclusive: 10 µM [inhibitor, full curve] | –
33 | Cc1ccc(-n2nc(CO)c(C(=O)NCCCc3ccccc3)n2)cc1C | inconclusive: 89.1 µM [inhibitor, partial curve, poor fit] | –
34 | Cc1ccc2nc(SCC(=O)c3c(N)n(C4CC4)c(=O)[nH]c3=O)[nH]c2c1 | inconclusive: 89.1 µM [inhibitor, single point] | –
35 | CCOc1ccccc1NC(=O)C(CC(C)C)NS(=O)(=O)c1ccc2c(c1)oc(=O)n2C (stereo unspecified) | inconclusive: 2.82 µM [inhibitor, partial curve, poor fit] | –
36 | CC(Oc1ccc(Cl)cc1Cl)C(=O)OCC(=O)c1c(N)n(C)c(=O)n(C)c1=O (stereo unspecified) | inconclusive: 50.1 µM [inhibitor, partial curve, poor fit] | –
37 | Cc1cc2ccccc2n1CCNC(=O)c1ccc(Br)o1 | – | inactive: -23.3%
38 | Cc1cccc(C)c1NC(=O)NCCc1c[nH]c2ccccc12 | – | inactive: 8.52%
39 | CSC1=NS(=O)(=O)c2c(C)nn(C)c2S1 | inconclusive: 89.1 µM [inhibitor, single point] | –
40 | COc1ccc(N2C(=O)CC(c3cc(OC)c(OC)c(OC)c3)CC2=O)cc1 | inconclusive: 79.4 µM [inhibitor, partial curve, poor fit] | –
41 | COc1ccc(/C=N/NC(=O)c2ccc(Cn3cc([N+](=O)[O-])cn3)o2)cc1O | inconclusive: 56.2 µM [inhibitor, partial curve, poor fit] | –
